The campaign covered roughly 310,000 compounds. About 14,000 (4.5%) showed an effect of 50% or more. Effects have a minus sign here. The list shows a part of the results.
target: human ether-à-go-go-related gene (hERG) potassium channel (human, UniProt Q12809); assay: primary screen, population patch clamp on CHO cells stably expressing hERG
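Also: peak tail current of the secondary pulse compared with the same well before compound.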

Sequence of human ether-à-go-go-related gene (hERG) potassium channel (Q12809 whole entry, looked up): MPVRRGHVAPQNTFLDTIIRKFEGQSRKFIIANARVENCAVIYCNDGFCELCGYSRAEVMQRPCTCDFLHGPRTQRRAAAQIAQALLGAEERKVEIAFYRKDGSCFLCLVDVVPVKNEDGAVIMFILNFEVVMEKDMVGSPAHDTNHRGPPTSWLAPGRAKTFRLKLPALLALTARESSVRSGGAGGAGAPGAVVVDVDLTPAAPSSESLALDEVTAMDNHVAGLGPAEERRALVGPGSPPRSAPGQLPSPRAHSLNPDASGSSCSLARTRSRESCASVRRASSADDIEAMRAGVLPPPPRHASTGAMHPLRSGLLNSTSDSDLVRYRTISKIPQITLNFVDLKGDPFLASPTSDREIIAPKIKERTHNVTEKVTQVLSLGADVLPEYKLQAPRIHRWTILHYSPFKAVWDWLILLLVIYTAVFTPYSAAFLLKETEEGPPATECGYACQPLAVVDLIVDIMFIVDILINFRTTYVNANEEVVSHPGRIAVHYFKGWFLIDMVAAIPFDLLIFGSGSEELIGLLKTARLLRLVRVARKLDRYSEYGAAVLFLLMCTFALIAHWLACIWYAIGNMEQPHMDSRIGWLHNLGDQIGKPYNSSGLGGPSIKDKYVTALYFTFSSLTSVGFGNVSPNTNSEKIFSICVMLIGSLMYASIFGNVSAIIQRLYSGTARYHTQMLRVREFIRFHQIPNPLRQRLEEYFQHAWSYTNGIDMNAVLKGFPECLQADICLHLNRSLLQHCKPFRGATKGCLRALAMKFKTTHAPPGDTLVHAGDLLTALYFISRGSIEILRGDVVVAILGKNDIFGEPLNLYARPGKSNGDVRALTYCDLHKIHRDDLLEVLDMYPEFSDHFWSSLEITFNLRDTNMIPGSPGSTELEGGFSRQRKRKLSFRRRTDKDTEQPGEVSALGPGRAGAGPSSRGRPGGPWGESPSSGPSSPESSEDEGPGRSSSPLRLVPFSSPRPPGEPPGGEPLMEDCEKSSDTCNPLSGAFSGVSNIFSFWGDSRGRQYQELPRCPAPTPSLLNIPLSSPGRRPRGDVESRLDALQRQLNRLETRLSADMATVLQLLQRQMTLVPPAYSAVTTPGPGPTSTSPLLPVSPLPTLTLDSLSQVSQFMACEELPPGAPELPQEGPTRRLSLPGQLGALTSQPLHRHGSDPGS

SMILES | hERG current change (%, negative = inhibition) at 10uM
CSc1ncccc1C(=O)N1CCN(S(=O)(=O)c2ccc(C)cc2)CC1 | -15.2%
C(=N\C(/N=C/c1ccco1)c1ccco1)/c1ccco1 | -5.1%
Cc1ccccc1NC(=O)c1ccc(OCc2c(C)noc2C)cc1 | -5.45%
CCCOc1ccc(NC(=O)Cc2ccc(S(=O)(=O)N3CCOCC3)s2)cc1OCCC | 6.32%
CN(Cc1ccccc1)c1nc2c(c(=O)n(C)c(=O)n2C)n1CCSc1ncccn1 | -13.7%
COc1ccc2[nH]c(C)c(CCNc3ccc(C(F)(F)F)cc3[N+](=O)[O-])c2c1 | -2.59%
O=C(O)C(=O)O.O=S(=O)(c1ccc(F)cc1)N1CCN(CC(O)COc2ccccc2F)CC1 (stereo not shown) | -14.5%
O=C(Cc1ccc(F)cc1)Nc1ccc(F)c([N+](=O)[O-])c1 | -10%
O=C(Nc1cccc(Cl)c1)C1CCCCC1 | -9.14%
COc1ccc(CC(=O)NCc2cccc(CNC(=O)Cc3ccc(OC)c(OC)c3)c2)cc1OC | 23.6%
O=C(O)Cn1c(C(F)(F)F)nc2ccccc21 | 7.6%
Cc1ccc(S(=O)(=O)C2(C(=O)NCc3ccccc3Cl)CC2)cc1 | -15.2%
CN1CCN(S(=O)(=O)c2cccc(C(=O)N(C)Cc3c(F)cccc3Cl)c2)CC1 | -13.8%
O=C(Nc1ccc(NS(=O)(=O)c2ccccc2)cc1)c1ccc(Cl)cc1 | 4.9%
CN(CC(=O)Nc1ccc(F)cc1)CC(=O)Nc1ccc(F)c(F)c1F | -28.9%
C#CCOCCOCCOCCNc1nc(N2CCN(C(=O)C([C@@H](C)CC)n3cc(C(N)COC(=O)C(F)(F)F)nn3)CC2)nc(N2CCN(C(=O)[C@H](CCCCN)n3cc(C(N)CC(C)C)nn3)CC2)n1.Cl (stereo partly shown) | -2.2%
C[N+](C)(C)CCCN(Cc1ccc2c(c1)OCO2)C(=O)NC1CCCCC1.[I-] | 17%
Cn1c(N)c(C(=O)COC(=O)CN2C(=O)c3ccccc3C2=O)c(=O)n(C)c1=O | 0.291%
O=C(CN1C(=O)COc2ccc(S(=O)(=O)N3CCOCC3)cc21)NCc1ccccn1 | -1.38%
CC(C)CCNC(=O)NC(=O)CSc1nnc2ccccn12 | 15.6%
Cn1c(NCc2ccco2)nc2ccccc21 | -10.2%
CCN(CCNC(=O)C1CCN(S(=O)(=O)c2cccc3nsnc23)CC1)c1ccccc1 | -25.9%
CNC(=S)NNC(=O)c1cc(C(C)(C)C)nn1Cc1ccc(F)cc1 | 14.6%
O=C(C1CCCCN1S(=O)(=O)c1ccccc1)N1CCN(Cc2ccccc2)CC1 (stereo not shown) | -19.5%
COc1cccc(CC(=O)Nc2ccc3c(c2)OC2(CCCC2)O3)c1 | -2.58%
Cc1cccc(C(=O)NC(=S)N2CCN(c3ccc([N+](=O)[O-])cc3)CC2)c1 | -2.77%
Cn1c(SCC(=O)Nc2ccccc2O)nnc1-c1ccco1 | -27.4%
O=C(Cc1n[nH]c(=O)c2ccccc12)OCC(=O)c1ccc(F)c(F)c1 | 13.4%

SMILES | hERG current change (%, negative = inhibition) at 10uM
CN1CCN(C(=S)SCc2nc(N)nc(Nc3ccc(F)cc3)n2)CC1 | -18.4%
CCCn1c(NC(=O)c2ccco2)nc2ccccc21 | 9.09%
NS(=O)(=O)c1ccc(CCNC(=S)NC2CCCCC2)cc1 | -3.19%
CCNc1nc(NCC)n2c(SCC(=O)Nc3ccc(CC)cc3)nnc2n1 | 8.7%
CC1Cc2ccccc2N1CC(=O)N(C)c1c(N)n(Cc2ccccc2)c(=O)[nH]c1=O (stereo not shown) | -6.81%
O=C(NCc1ccc(F)cc1)N1CCc2ccccc2C1 | 2.77%
Cc1ccccc1-n1c(SCC(N)=O)nc2sc(-c3ccccc3)cc2c1=O | -3.3%
COc1ccc(OC)c(S(=O)(=O)Nc2ccc3c(c2)N(C(C)=O)CCC3)c1 | -10.4%
COc1ccc(-c2noc(-c3ccccc3C(=O)NCc3ccco3)n2)cc1OC | -33.7%
Cc1cc(=O)c(C(=O)O)cn1Nc1ccc(F)cc1 | 1.32%
CC(Oc1ccc(Cl)cc1)C(=O)Nc1nccs1 (stereo not shown) | -6.48%
CCCCCCCC(=O)OC(CN1CCCC1=O)C[NH+]1CCCCCC1.[Cl-] (stereo not shown) | -9.91%
COCc1cc(C)nc(OCC(=O)N/N=C/c2ccc(-c3cc([N+](=O)[O-])ccc3Cl)o2)c1C#N | 18%
Cc1cccc(NC(=S)Nc2cccc(C)n2)n1 | 14.5%
Cc1ccccc1OCc1n[nH]c(=S)n1Cc1ccccc1 | 15.1%
Cc1nn(CCCC(=O)NCc2ccc(F)cc2)c(C)c1[N+](=O)[O-] | -47.6%
CCOC(=O)c1cc(-c2ccccc2C)nn1Cc1cc(CC)no1 | -6.45%
CCn1c2ccccc2c2cnc(N=CN(C)C)c(C#N)c21 | -24%
CC1(C)CC(=O)C(CS(=O)(=O)c2ccccc2)=C(Cl)C1 | 12.9%
Cc1nc(/C=C\C(=O)O)c2cc(C)oc2n1 | 6.6%
CN(C)c1ccc(/C=N/Nc2cccc(C(=O)O)c2)cc1 | 24.2%
COc1ccc(Nc2cccccc2=O)cc1 | -24%
Cc1cc(NC(=O)CCC(=O)N(CCC(C)C)C(C(=O)NCC2CCCO2)c2ccccc2C)no1 (stereo not shown) | 17.5%
O=C(Cn1nc(-c2ccccc2)nc1-c1ccccc1)OC1CCCCC1 | 7.88%
CC(=O)c1c(C)[nH]c(C(=O)OCC(=O)Nc2nnc(-c3ccccc3)o2)c1C | 9.78%
CCOC(=O)CSc1ncnc2c1sc1nc(N3CCOCC3)c3c(c12)CCCC3 | 12.7%
N#CCCN(CCC#N)S(=O)(=O)c1ccc(C(=O)Nc2nc(-c3ccccc3)c(C(=O)c3ccccc3)s2)cc1 | -0.441%
